From a collection of fitness landscapes (doi:10.1016/j.celrep.2020.107928)
Over roughly 81,000 sequences, “one-hybrid fitness for binding parS DNA” has its median near -0.17; the highest 2% begin near 0.51. Some of the results follow.

B1: Caulobacter ParB omega fusion; a variant is named by its letters at X, in order, B8GW30 (parent)
chain: MESVVVGEPGMSEGRRGLGRGLSALLGEVDAAPAQAPGEQLGGSREAPIEILQRNPDQPRRTFREEDLEDLSNSIREKGVLQPILVRPSPDTAGEYQIVAGERAWRAAQRAGLKTVPIMVRELDDLAVLEIGIIENVQRADLNVLEEALSYKVLMEKFERTQENIAQTIGKSXSHVANXMRLLXLPDEVQSYLVSGELTAXHARAIAAAADPVALAKQIIEGGLSVRETEALARKAPNLSAGKSKGGRPPRVKDTDTQALESDLSSVLGLDVSIDHRGSTGTLTITYATLEQLDDLCNRLTRGI

Variants of: B1
Assay: one-hybrid fitness for binding parS DNA (scaled: cognate 1, non-cognate 0); higher = stronger binding
Conditions: with parS DNA site
How it was run: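 Fitness here means the log change in variant-to-wild-type read ratio between plasmids sequenced before and after selection. That scale was set so cognate equals 1 and non-cognate equals 0. The selection was a bacterial one-hybrid screen of Caulobacter ParB libraries, four specificity codons randomised, in E. coli USO carrying a HIS3 reporter with the site 19 bp from the promoter, grown 48 hours at 37°C on M9-minus-histidine with 0.1 mM IPTG and 5 mM 3-AT.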

Row | Variant | one-hybrid fitness for binding parS DNA
1 | TGCM | ≤ 0.2
2 | LQTK | ≤ 0.2
3 | KGFI | ≤ 0.2
4 | NSSN | ≤ 0.2
5 | ATCC | ≤ 0.2
6 | QNIE | ≤ 0.2
7 | SERG | ≤ 0.2
8 | SETT | ≤ 0.2
9 | LHEC | ≤ 0.2
10 | FTAQ | ≤ 0.2
11 | TMTV | ≤ 0.2
12 | VRSE | ≤ 0.2
13 | PCYG | ≤ 0.2
14 | IQRL | ≤ 0.2
15 | KWRA | ≤ 0.2
16 | RSFG | 0.94
17 | CLDY | ≤ 0.2
18 | GLKK | ≤ 0.2
19 | RLDC | 0.938
20 | QTME | ≤ 0.2
21 | CRTT | ≤ 0.2
22 | DWST | ≤ 0.2
23 | GVRL | ≤ 0.2
24 | KFRN | ≤ 0.2
25 | ILTG | ≤ 0.2

Row | Variant | one-hybrid fitness for binding parS DNA
26 | IDRP | ≤ 0.2
27 | AAFI | ≤ 0.2
28 | PWNG | ≤ 0.2
29 | ASPY | ≤ 0.2
30 | WAGG | ≤ 0.2
31 | KRSM | ≤ 0.2
32 | EAQQ | ≤ 0.2
33 | HDRW | ≤ 0.2
34 | MIES | ≤ 0.2
35 | VKDR | ≤ 0.2
36 | LYPA | ≤ 0.2
37 | SGRP | ≤ 0.2
38 | NTKI | ≤ 0.2
39 | PYQT | ≤ 0.2
40 | VAAK | ≤ 0.2
41 | ANFK | ≤ 0.2
42 | VYRY | ≤ 0.2
43 | GVKR | ≤ 0.2
44 | FMWR | ≤ 0.2
45 | ALLN | ≤ 0.2
46 | LAAV | ≤ 0.2
47 | HPQQ | ≤ 0.2
48 | NTSF | ≤ 0.2
49 | FRHA | ≤ 0.2
50 | IDLS | ≤ 0.2

Row | Variant | one-hybrid fitness for binding parS DNA
51 | PAEA | ≤ 0.2
52 | SRMD | ≤ 0.2
53 | VCDR | ≤ 0.2
54 | TWLY | ≤ 0.2
55 | FLPM | ≤ 0.2
56 | DHNQ | ≤ 0.2
57 | RSCQ | ≤ 0.2
58 | YHRC | ≤ 0.2
59 | RHRH | 0.232
60 | SMWR | ≤ 0.2
61 | WHSR | ≤ 0.2
62 | QMVG | ≤ 0.2
63 | TWIT | ≤ 0.2
64 | PWLT | ≤ 0.2
65 | TALS | ≤ 0.2
66 | ARIE | ≤ 0.2
67 | PREV | ≤ 0.2
68 | HVRW | ≤ 0.2
69 | HANT | ≤ 0.2
70 | LYSW | ≤ 0.2
71 | RQNY | 0.442
72 | SPMC | ≤ 0.2
73 | GLSF | ≤ 0.2
74 | SSAE | ≤ 0.2
75 | KFSC | ≤ 0.2

Row | Variant | one-hybrid fitness for binding parS DNA
76 | GNIW | ≤ 0.2
77 | VTPR | ≤ 0.2
78 | SVNV | ≤ 0.2
79 | IWNG | ≤ 0.2
80 | PCIC | ≤ 0.2
81 | AVAW | ≤ 0.2
82 | VNRV | ≤ 0.2
83 | TYMC | ≤ 0.2
84 | SLTI | ≤ 0.2
85 | RVEL | ≤ 0.2
86 | LISK | ≤ 0.2
87 | IEST | ≤ 0.2
88 | YHEG | ≤ 0.2
89 | NQCS | ≤ 0.2
90 | NGPC | ≤ 0.2
91 | PALC | ≤ 0.2
92 | QQMH | ≤ 0.2
93 | MASV | ≤ 0.2
94 | AGMR | ≤ 0.2
95 | KLPI | ≤ 0.2
96 | WRWS | ≤ 0.2
97 | MTNL | ≤ 0.2
